Reference: the GPR68 mutational scans of Howard et al. (2025)

B1: GPR68, Q15743 (parent)
chain: MGNITADNSSMSCTIDHTIHQTLAPVVYVTVLVVGFPANCLSLYFGYLQIKARNELGVYLCNLTVADLFYICSLPFWLQYVLQHDNWSHGDLSCQVCGILLYENIYISVGFLCCISVDRYLAVAHPFRFHQFRTLKAAVGVSVVIWAKELLTSIYFLMHEEVIEDENQHRVCFEHYPIQAWQRAINYYRFLVGFLFPICLLLASYQGILRAVRRSHGTQKSRKDQIQRLVLSTVVIFLACFLPYHVLLLVRSVWEASCDFAKGVFNAYHFSLLLTSFNCVADPVLYCFVSETTHRDLARLRGACLAFLTCSRTGRAREAYPLGAPEASGKSGAQGEEPELLTKLHPAFQTPNSPGSGGFPTGRLA

What was measured:
[1] = variants of: B1; assay: cAMP reporter score (Enrich2 score, wild type = 0); higher = more signal; HEK293T, FACS bins
[2] = variants of: B1; assay: surface expression score (Enrich2 score, wild type = 0); higher = more signal; HEK293T, FACS bins

Variant	cAMP reporter score ([1]; pH 5.5)	cAMP reporter score ([1]; pH 6)	cAMP reporter score ([1]; pH 6.5, modulator: ogerin)	surface expression score [2]	cAMP reporter score ([1]; pH 6, modulator: ogerin)
R119_Y120insGS	-0.539	-0.35	-0.265	-2.47	
R119_Y120del	-0.829	-0.153	-0.729	-2.85	
Y120M	-0.189	-0.193	-0.844	-2.84	-1.47
Y120V	-0.226		-0.024		1.53
Y120N	-0.409	-0.582			
Y120F	-1.04	-0.665	-0.437	-0.411	-0.669
Y120P	-1.85	-1.34	-1.34	-1.86	-1.71
Y120R	-2.5	-1.06			-3.79
Y120K	-0.401		-0.432	-0.425	-0.664
Y120L	0.115		-0.112	-1.72	0.469
Y120Q	-1.19	-0.812	-2.28	-2.9	
Y120S	-0.285	0.489		-1.25	-3.46
Y120D	-1.63	-1.16	-1.57	-3.5	
Y120E	-0.969	-2.02	-0.424		-0.184
Y120T	-1.5	-1.1	-0.851	-2.66	-2.17
Y120G	-0.817	-1.51	-0.604	-2.49	
Y120W	1.37	-0.698	-0.441	0.891	-0.64
Y120C	-0.296	-0.786	-1.14	-2.45	-2.67
Y120H	-0.808	-0.376	-0.858	-0.97	-1.02
V123Q	-1.62	-0.764	-1.26	-1.97	-0.935
V123L	-0.227	-0.06		-0.401	0.272
V123K	-0.009			-1.58	-1.6
V123S	-0.991	-1.15	-0.648	-1.92	-1.02

Variant	cAMP reporter score ([1]; pH 5.5)	cAMP reporter score ([1]; pH 6)	cAMP reporter score ([1]; pH 6.5, modulator: ogerin)	surface expression score [2]	cAMP reporter score ([1]; pH 6, modulator: ogerin)
V123G	-0.109	-1.47	-0.862		-1.23
V123D	-2.46	-1.08	-0.794	-2.65	-0.536
V123T	-1.23	-0.811	-1.07	-0.528	-1.35
V123Y	-1.21	-0.434	-0.854	-1.19	-1.08
V123A	-0.928	-0.38	-0.884	-0.723	-0.919
V123P	-0.951	-1.48	-1.75	-2.93	-1.96
V123E	-2	-0.837	-1.56	-1.26	-1.66
V123N	-2.47	-1.57	-1.6	-2.08	-1.51
V123F	-0.865	-1.94	-1.37	-1.77	-1.29
V123R	-1.98	-2.11	-1.45	-2.82	-2.04
V123C	1.02		-0.415	1.51	-0.917
V123H	-1.12	1.43	-0.701	-1.42	-1.19
V123W	-1.67	-1.53	-1.88	0.012	
V123M	-1.73		-1.09	-0.475	-1
Y120del	-0.841	-0.849	-0.606	-2.44	-1.16
S108_G110del	-1.92	-0.741	-1.02	-2.1	-1.67
L112_C113del	-1.59		-1.39	-2.65	
L121_A122insG	-1.73	-1.2	-1.07	-3.14	-1.14
S116_V117insGS	-2.12	-1.61	-2.22		-1.55
V123_A124insGS	-0.413				-2.37
Y120_A122del	-2.34	-1.1	-1.24	-2.47	
Y120_L121del	-0.558		-1.84	-1.94	-1.25
I107_V109del	-1.62	-0.919	-0.896	-2.24	-0.698

Variant	cAMP reporter score ([1]; pH 5.5)	cAMP reporter score ([1]; pH 6)	cAMP reporter score ([1]; pH 6.5, modulator: ogerin)	surface expression score [2]	cAMP reporter score ([1]; pH 6, modulator: ogerin)
A122_V123insGSG	-0.645		-0.453	-1.84	
S116_D118del	-1.96	-1.32	-1.34	-2.52	-1.68
C113_I115del	-2.05	-1.54	-1.46	-2.91	-2.03
I107Q	-1.32	-1.85	-1.62	-3.01	-2
I107W	-0.508		-1.61	-3.56	
I107R	-1.06	-0.617	-0.386	-2.58	
I107V	-0.482		-0.426		
I107Y	-1.57		-0.616	-2.72	-1.06
I107S	-1.05			-2.42	0.894
I115_S116insGSG	-1.66	-2.15	-1.11	-2.24	-0.924
Y120_L121insGSG	-1.9	-1.83	-1.38	-1.19	
V117_D118insGSG	-0.482	-0.244			
L112_C113insG	-1.39	-0.949	-1.82	-1.91	-2
V123_H125del	-1.88	-1.51	-2.16	-3.31	
G110_F111insGS	-0.182	-0.648			-3.17
V109G	-1.19				-1.26
V109P	-1.42	-0.875	-0.238	-2.82	-1.77
V109N	-1.14	-0.476	-1.48	-1.09	-1.67
V109E	-0.807		-0.152	-3.54	-3.03
V109Q	-0.112	-0.428		-1.37	-0.814
V109R	-1.99	-1.32	-1.25	-3.18	-1.87
V109M	-0.58	0.148	-0.634	-0.568	-0.611
V109Y	-0.397		-0.439		-1.68

The least precise scores are not listed. The source holds two more conditions with little spread; they are left out. In variant names, del marks residues removed and ins residues inserted between the two positions. For some of these results: The concentration of ogerin is not given here.
